The full ranking holds about 33,000 sequences; the median of “E-score (-0.5 to 0.5)” is about -0.016, and the highest 2% start at about 0.31. The list shows a part of the results.
These sequences were tested against Cst6 (UniProt P40535) (assay: PBM E-score (8-mer binding enrichment) (E-score (-0.5 to 0.5)); higher = stronger / more preferred TF binding; most listed sequences are background and not binding sites). Details: protein concentration: 200 nM; construct: GST-DNA-binding domain.
In short: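 Universal all-10-mer Agilent arrays, double-stranded by primer extension on fresh or once-stripped slides, were probed with about 100-200 nM GST-tagged yeast transcription factors made by PURExpress. Fluorescent anti-GST detected bound protein, and masliner normalised the scans. E-scores from the Universal PBM Analysis Suite were given to each ungapped eight-base word pooled with its reverse complement.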

| Sequence | PBM E-score |
| --- | --- |
| AGGGTATC | -0.0868 |
| AACACGTC | 0.199 |
| AACAACCT | -0.0341 |
| GCAGCTAC | 0.0861 |
| AAGATTTA | 0.204 |
| CGCCTAAA | -0.092 |
| AGGTCAGC | -0.0262 |
| CCCATGCG | -0.0581 |
| TATATCAA | 0.206 |
| ATAGATCG | -0.0649 |
| CACGCAGC | -0.14 |
| AATACTTG | 0.176 |
| AGTACGTC | 0.205 |
| CAAGTTAG | -0.0811 |
| CTCTAAAA | 0.156 |
| GAGTTTCA | -0.0691 |
| CCACGCGC | -0.238 |
| CCGTTGTA | 0.0324 |
| GCGTGTAC | -0.0456 |
| GATTTCGC | 0.176 |
| AGTGACCC | -0.164 |
| ATTGATCA | 0.18 |
| AATATCGC | 0.0782 |

| Sequence | PBM E-score |
| --- | --- |
| CGCGATTA | 0.184 |
| CCCAAACA | 0.0193 |
| AAAATATC | 0.164 |
| AGAATAAC | 0.024 |
| CGGTACAA | 0.0379 |
| AGTCCATG | -0.23 |
| ACCTGAAC | -0.2 |
| GCTGATCC | -0.128 |
| GCCGTCGA | 0.0868 |
| TCACCCAA | 0.22 |
| CAACCACC | -0.251 |
| GGCTCCCA | -0.335 |
| ATTGCCGC | 0.205 |
| ATGGAGGG | -0.259 |
| AAGATGGG | -0.0638 |
| CGTTCTAA | 0.0559 |
| GAGGTCGA | -0.119 |
| GTGGATAA | -0.088 |
| AAACAACG | 0.0413 |
| AGGCCTTG | -0.249 |
| CGGTAGAG | -0.106 |
| CGGCCCGC | -0.106 |
| AGGCTGGC | -0.195 |

| Sequence | PBM E-score |
| --- | --- |
| AGAAGCCT | 0.0248 |
| CGCGAGAG | -0.189 |
| ACGGAAAA | 0.0205 |
| AACCGGAC | -0.119 |
| ATGGTCAC | -0.00469 |
| AGTCACAT | 0.0935 |
| TGTGGTAA | 0.142 |
| CTCACAAC | 0.137 |
| TAATCGGA | 0.0806 |
| ATCCTCGA | 0.0819 |
| CGTTAAGA | 0.144 |
| AGGCCGCC | -0.161 |
| ACCGGCCA | -0.268 |
| GAGATCCC | -0.151 |
| AATGGATC | 0.00182 |
| GAGATAAA | 0.0874 |
| ACCTCAGA | -0.0614 |
| AGGCAGTG | 0.071 |
| ACCTCTCG | -0.215 |
| ATGTAGCG | -0.21 |
| ATAGAGGA | -0.238 |
| ACATTCCA | 0.00508 |
| TGCTTCAA | -0.00788 |

| Sequence | PBM E-score |
| --- | --- |
| ACCTGCCA | -0.179 |
| GGCTGCAA | -0.0257 |
| ATCCCAGA | -0.267 |
| CCACAGAG | -0.098 |
| TCTATGAA | 0.107 |
| CCAAAACA | -0.0682 |
| TCCCGTCA | 0.0641 |
| CTCCACAG | -0.266 |
| AATCGAGG | -0.0275 |
| AATGTCTG | -0.118 |
| CGCGATGA | 0.29 |
| AAAACCGA | 0.0246 |
| AGCAGGGA | -0.264 |
| ATTAATCA | 0.265 |
| TCATGACA | 0.392 |
| CCTGAAGA | -0.0364 |
| GAACGACC | -0.233 |
| ATGTACCC | -0.101 |
| ACAACCAG | 0.0122 |
| CAAGTGAG | -0.162 |
| AATAGAGT | -0.0923 |
| CAATGTAA | 0.213 |
| TAAAACGA | -0.143 |

| Sequence | PBM E-score |
| --- | --- |
| AGAAGAAC | -0.0619 |
| CGCATGAA | 0.0343 |
| AATGTATC | 0.196 |
| CACACACA | 0.0924 |
| AGGCACAT | 0.168 |
| CTACACGA | 0.0631 |
| AAACATCC | 0.0423 |
| ATGGCAAA | 0.0895 |
| AACATGAG | 0.015 |
| CTAACTAG | 0.0585 |
| GCGTCGAA | 0.079 |
| CCTGCGAA | -0.0256 |
| CAGCAGAA | -0.0187 |
| CCCATCCC | -0.227 |
| CCTATCCA | -0.217 |
| CCGGAGCC | -0.15 |
| ATACGATA | 0.164 |
| GCCTGGCC | -0.347 |
| ACCTTGAA | -0.0567 |
| GACTATGC | -0.0831 |
| AAGCCTTG | 0.0508 |
| ACGTAAGT | 0.422 |
| AAATTACG | 0.336 |

| Sequence | PBM E-score |
| --- | --- |
| ACGAACTG | -0.187 |
| AGGGATGC | -0.355 |
| ACTATGAC | 0.264 |
| ATTTGTCG | 0.132 |
| AACGTATG | 0.255 |
| ACCACCCG | -0.156 |
| TACGGGAA | -0.242 |
| AGGAGTTA | -0.0453 |
| CGGGAGAA | -0.177 |
| CAAGAGGG | -0.189 |
| ATGGATGA | 0.0833 |
| ACCTAGTC | -0.16 |
| AGGGCTAT | -0.315 |
| TCACATCA | 0.298 |
| CCTCATGA | 0.175 |
| GACCACCC | -0.213 |
| TACACGAA | 0.265 |
| ATCCGTTG | -0.002 |
| CAGGATCG | -0.222 |
| AAAGAGAG | -0.103 |
| CCCGGAAA | -0.157 |
| ACTAGCGC | -0.0778 |
| ACTGGCGA | -0.194 |

| Sequence | PBM E-score |
| --- | --- |
| ACGACATC | 0.12 |
| CACTACCC | -0.0498 |
| AATGGAAG | 0.0735 |
| CTGCCGAA | -0.155 |
| ACACCGAG | -0.139 |
| CCTGGAAG | -0.155 |
| ACTAATCA | 0.0843 |
| CAATTTCG | 0.0735 |
| ATAGGGTG | -0.144 |
| GTTGGATA | 0.0478 |
| TCATATCA | 0.251 |
| CCATCCAC | -0.135 |
| AACTGATC | -0.00933 |
| CCGCAACG | 0.0443 |
| ATTATCAA | 0.207 |
| CTCCGACA | -0.11 |
| ACTCTTGG | -0.121 |
| AGGCTCTA | 0.0163 |
| CCCATCGG | -0.251 |
| TCAAGAGA | 0.0347 |
| ATCGCTCC | -0.182 |
| AGTCATCC | -0.0119 |

Source: the supplement of paper PMC3334620
